# Measured values from PubChem BioAssay (Tox21).
# Values joined by “and” are separate entries in the source; they are usually repeats but may differ in a detail not shown here. Equal values may be shown once. The inconclusive results got no clear call from the source; some entries with a clear call stand among them for comparison. Where the call is inconclusive, the potency comes from a doubtful curve fit. The source holds several records for some structures; these can differ, active in one and inactive in another. Active and inactive are the calls of the source. Unless noted, calls follow the shape of the dose curve; as a rule, active = well fitted curve in the direction sought with a large enough effect in the repeat runs; inconclusive = weak or mixed curves; inactive = no such curve, though single readings can be large; an effect the other way counts as inactive or inconclusive.
# Columns and labels:
# [1] = qHTS assay to identify small molecule antagonists of the peroxisome proliferator-activated receptor gamma (PPARg) signaling pathway - cell viability counter screen (AID 743194); conditions: PPARg-bla HEK293H viability, CellTiter-Glo luminescence, 17 h; Potency: co-treated with 50 nM rosiglitazone unless noted; activity change, negative = cytotoxicity: at 62.6 µM (top of the series), co-treated with 50 nM rosiglitazone unless noted; also: nearly all actives have a fitted effect of over 55% in size; as to activity change, negative = cytotoxicity: % is scaled to controls: 0 for no effect and ±100 for the full control effect
# In short: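 Viability was measured as CellTiter-Glo luminescence in GeneBLAzer PPARg UAS-bla HEK293H cells. These cells had been exposed 17 h at 37 C to compounds together with rosiglitazone at 50 nM final, with the beta-lactamase readout taken in the same wells.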
# [2] = qHTS assay for small molecule agonists of the antioxidant response element (ARE) signaling pathway (AID 743202; active = well fitted activation curve with a large enough effect in the signal ratio in the repeat runs, not every such curve was filed as active; inconclusive = weak or mixed curves, or effect the other way; inactive = no such curve, though single readings can be large or run the other way; the % refers to the signal ratio; as to activation: % is scaled to controls: 0 for no effect and ±100 for the full control effect); conditions: HepG2 ARE-bla reporter, beta-lactamase FRET, 16 h
# In short: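 Quantitative high-throughput format in HepG2 cells bearing an integrated ARE-beta-lactamase reporter. Compound exposure lasted 16 h at 37 C, and fluorescence was read 2 h after adding LiveBLAzer B/G substrate at room temperature.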
# [3] = qHTS assay for small molecule agonists of the antioxidant response element (ARE) signaling pathway - cell viability counter screen (AID 743203; calls by dose curve; also: nearly all actives have a fitted effect of over 55% in size); conditions: ARE-bla HepG2 viability, CellTiter-Glo luminescence, 16 h; viability change, negative = cytotoxic: at 73.3 µM (top of the series)
# In short: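 HepG2 cells carrying ARE-driven beta-lactamase; 2,000 cells/well; 5 hrs plating; compound pinned from DMSO; 16 hrs 37C/5% CO2; CellTiter-Glo added; 30 min RT; luminescence.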
# [4] = qHTS assay for small molecule activators of the heat shock response signaling pathway - cell viability counter screen (AID 743209); conditions: HSE-bla HeLa viability, CellTiter-Glo luminescence, 5 h; activity change, negative = cytotoxicity: at 62.6 µM (top of the series) unless noted; also: nearly all actives have a fitted effect of over 50% in size; as to activity change, negative = cytotoxicity: % is scaled to controls: 0 for no effect and ±100 for the full control effect
# In short: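 Luminescence from CellTiter-Glo, added after the beta-lactamase FRET read, gave the viability signal. Cells were HSE-bla HeLa treated with DMSO-dissolved compounds for 5 h at 37 C following overnight plating.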
# [5] = qHTS assay for small molecule activators of the heat shock response signaling pathway (AID 743210; active = well fitted activation curve with a large enough effect in the signal ratio in the repeat runs, with a control signal flat, not every such curve was filed as active; inconclusive = weak or mixed curves; the % refers to the signal ratio); conditions: HeLa HSE-bla reporter, beta-lactamase ratio, 5 h; activation: at 62.6 µM (top of the series) unless noted
# In short: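 HeLa HSE-bla cells, overnight plating; cpd in DMSO 5 h, 37 C; LiveBLAzer B/G FRET substrate 2.5 h RT; fluorescence intensity read.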
# [6] = qHTS assay to identify small molecule agonists of the peroxisome proliferator-activated receptor delta (PPARd) signaling pathway - cell viability counter screen (AID 743211); conditions: PPARd-bla HEK293H viability, CellTiter-Glo luminescence, 17 h; activity change, negative = cytotoxicity: at 62.6 µM (top of the series); also: nearly all actives have a fitted effect of over 55% in size
# In short: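 PPARd-bla HEK293H cells (3000/well) were pre-incubated 5 h at 37 C, then exposed to compound for 17 h at 37 C. After 2 h with LiveBLAzer substrate, CellTiter-Glo was added to the same wells; luminescence read after 30 min at room temperature.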
# [7] = target: Peroxisome proliferator-activated receptor delta (Homo sapiens) (UniProt Q03181); experiment: qHTS assay to identify small molecule agonists of the peroxisome proliferator-activated receptor delta (PPARd) signaling pathway (AID 743212; calls by dose curve); conditions: HEK293H PPARd-UAS-bla, beta-lactamase FRET ratio, 17 h; activation: at 62.6 µM (top of the series) unless noted
# Chain of UniProt Q03181 (Q03181 whole entry, looked up): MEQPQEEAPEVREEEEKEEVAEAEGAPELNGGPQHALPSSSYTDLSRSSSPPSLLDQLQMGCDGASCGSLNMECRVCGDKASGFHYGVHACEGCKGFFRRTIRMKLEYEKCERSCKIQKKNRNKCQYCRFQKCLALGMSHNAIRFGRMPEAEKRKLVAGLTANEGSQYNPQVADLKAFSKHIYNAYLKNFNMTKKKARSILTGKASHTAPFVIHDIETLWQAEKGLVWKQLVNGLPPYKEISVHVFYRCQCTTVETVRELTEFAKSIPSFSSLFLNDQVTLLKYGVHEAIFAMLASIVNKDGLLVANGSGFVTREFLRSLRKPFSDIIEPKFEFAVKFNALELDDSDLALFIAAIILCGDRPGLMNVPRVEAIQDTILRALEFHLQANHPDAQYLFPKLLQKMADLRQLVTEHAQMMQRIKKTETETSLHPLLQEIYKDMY
# In short: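 HEK293H PPARd-bla cells; 5 h preincubation 37 C/5% CO2; compound (DMSO) 37 C; LiveBLAzer B/G FRET substrate 2 h RT; fluorescence intensity.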
# [8] = qHTS assay to identify small molecule antagonists of the peroxisome proliferator-activated receptor delta (PPARd) signaling pathway - cell viability counter screen (AID 743213); conditions: PPARd-bla HEK293H viability, CellTiter-Glo luminescence, 17 h; viability change, negative = cytotoxic: at 62 µM (top of the series) unless noted; also: nearly all actives have a fitted effect of over 50% in size
# In short: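 Viability counter-screen, qHTS format: PPARd-bla HEK293H, L165041 300 nM final, 17 h compound exposure at 37 C, CellTiter-Glo luminescence after 30 min RT.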
# [9] = target: Peroxisome proliferator-activated receptor delta (Homo sapiens) (UniProt Q03181); experiment: qHTS assay to identify small molecule antagonists of the peroxisome proliferator-activated receptor delta (PPARd) signaling pathway (AID 743215; active = well fitted inhibition curve with a large enough effect in the signal ratio in the repeat runs, not every such curve was filed as active; inconclusive = weak or mixed curves, or effect the other way; inactive = no such curve, though single readings can be large or run the other way; the % refers to the signal ratio;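 also: cells stimulated with agonist L165041 at 300 nM final during compound exposure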); conditions: HEK293H PPARd-UAS-bla, beta-lactamase FRET ratio, antagonist, 17 h; ratio activity, negative = inhibition: at 62 µM (top of the series) unless noted
# In short: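 Read-out is beta-lactamase FRET fluorescence, measured 2 h after substrate addition at room temperature. Beforehand, UAS-bla HEK293H cells carrying the PPARd reporter were exposed to compounds with L165041 at 300 nM final for 17 h at 37 C.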
# [10] = target: Bile acid receptor (Homo sapiens) (UniProt Q96RI1); experiment: qHTS assay to identify small molecule antagonists of the farnesoid-X-receptor (FXR) signaling pathway (AID 743217; active = well fitted inhibition curve with a large enough effect in the signal ratio in the repeat runs, not every such curve was filed as active; inconclusive = weak or mixed curves, or effect the other way; inactive = no such curve, though single readings can be large or run the other way; the % refers to the signal ratio); conditions: HEK293T FXR-UAS-bla, beta-lactamase ratio, CDCA-stimulated, 16 h; activity change, negative = inhibition: at 62.6 µM (top of the series) unless noted
# Chain of UniProt Q96RI1 (Q96RI1 whole entry, looked up): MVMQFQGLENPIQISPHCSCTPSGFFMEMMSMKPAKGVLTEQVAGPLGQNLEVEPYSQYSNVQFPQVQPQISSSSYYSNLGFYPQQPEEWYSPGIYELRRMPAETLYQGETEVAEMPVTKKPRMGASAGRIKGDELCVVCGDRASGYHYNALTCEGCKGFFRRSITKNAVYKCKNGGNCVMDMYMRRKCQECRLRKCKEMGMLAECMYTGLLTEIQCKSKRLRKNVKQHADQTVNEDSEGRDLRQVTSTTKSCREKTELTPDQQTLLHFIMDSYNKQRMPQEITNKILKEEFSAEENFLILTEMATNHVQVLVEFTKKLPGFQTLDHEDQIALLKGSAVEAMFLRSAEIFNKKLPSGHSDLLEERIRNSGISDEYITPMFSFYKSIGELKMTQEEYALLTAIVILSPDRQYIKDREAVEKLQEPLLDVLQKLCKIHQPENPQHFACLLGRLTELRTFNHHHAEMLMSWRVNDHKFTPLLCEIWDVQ
# In short: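 HEK 293T FXR-UAS-bla, 5000 cells/well; compound + CDCA 50 uM final; 16 h, 37 °C; B/G FRET substrate 2 h RT; fluorescence.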
# [11] = activation: at 73.3 µM (top of the series) unless noted
# Potency is read from the fitted curve at half-maximal effect; tags tell the direction and shape of the fitted curve or compound fluorescence and quenching.
smiles,measurement,setting,value
Fc1ccc(C(OCCN2CCN(CCCc3ccccc3)CC2)c2ccc(F)cc2)cc1,Potency,[1],active: 16.8 µM
same,Potency,[2]; [11],inconclusive: 33.5 µM
same,Potency,[3],active: 29.8 µM
same,Potency,[4],"inconclusive: 42.2 µM [cytotoxic, partial curve, poor fit]"
same,Potency,[5],inconclusive: 29.8 µM [partial curve]
same,Potency,[6],active: 16.8 µM
same,Potency,[7],"inconclusive: 23.7 µM [rising, single point]"
same,Potency,[8],active: 26.6 µM
same,Potency,[9],active: 29.8 µM
same,Potency,[10],inconclusive: 33.5 µM [single point]
O=c1ssc(Cl)c1Cl,Potency,[1],active: 38.9 µM
same,Potency,[2]; [11],"inconclusive: 24.3 µM [falling, partial curve]"
same,Potency,[3],active: 24.3 µM
same,Potency,[4],active: 49 µM
same,Potency,[5],inconclusive: 43.6 µM [partial curve]
same,Potency,[6],active: 49 µM
same,Potency,[7],"inconclusive: 54.9 µM [falling, partial curve, poor fit]"
same,Potency,[8],"inconclusive: 54.9 µM [cytotoxic, single point]"
CC(C)C(=O)OCC(C)(C)C(OC(=O)C(C)C)C(C)C (stereo not given),Potency,[1],"active: 35 µM [setting not given] and inconclusive: 4.36 µM [cytotoxic, full curve, poor fit] [setting not given]"
same,activation,[2]; [11],inconclusive: -3.58%
same,activation,[2]; at 94.8 µM (top of the series),inactive: -3.01%
same,Potency,[4],active: 24.8 µM
same,Potency,[8],"inconclusive: 0.175 µM [cytotoxic, full curve, poor fit]"
CCCCCCCCCC(CC)c1ccc(S(=O)(=O)O)cc1 (stereo not given),Potency,[1],"inconclusive: 49.5 µM [cytotoxic, single point] [setting not given] and inconclusive: 10.7 µM [cytotoxic, partial curve, poor fit] [setting not given] and active: 15.5 µM [setting not given]"
same,Potency,[2]; [11],"inconclusive: 68.9 µM [falling, single point] [middle of 4 runs]"
same,activation,[2]; [11],inconclusive: -16.8%
same,Potency,[3],"inconclusive: 69.3 µM [cytotoxic, single point] and inconclusive: 68.9 µM [cytotoxic, single point]"
same,Potency,[6],"inconclusive: 55.2 µM [cytotoxic, single point]"
same,Potency,[8],"inconclusive: 39.3 µM [cytotoxic, partial curve, poor fit] and inconclusive: 15.3 µM [cytotoxic, partial curve, poor fit]"
CCCCCCCCn1sccc1=O,Potency,[1],active: 34.7 µM and active: 28.9 µM
same,Potency,[2]; [11],"inconclusive: 18.1 µM [rising, partial curve, poor fit]"
same,activation,[2]; [11],inconclusive: -72.3%
same,Potency,[5],inconclusive: 47.2 µM and inconclusive: 7.83 µM
same,Potency,[8],active: 1.38 µM and active: 1.82 µM
same,Potency,[9],"inconclusive: 1.38 µM and inconclusive: 1.62 µM [inhibitor, full curve, poor fit]"
same,Potency,[10],"inconclusive: 2.46 µM [rising, full curve] and inconclusive: 4.57 µM [rising, full curve]"
N#Cc1cccc(C#N)c1,Potency,[1],"inconclusive: 5.41 µM [rising, full curve, poor fit]"
Clc1cc2c(cc1Cl)Oc1cc(Cl)c(Cl)cc1O2,"activity change, negative = cytotoxicity",[1],"inactive: 15.5% [at 0.275 µM, co-treated with 50 nM rosiglitazone]"
same,Potency,[2]; [11],inconclusive: 0.0001 µM
O=C1C2CC=CCC2C(=O)N1SC(Cl)(Cl)Cl (stereo not given),Potency,[1],"inconclusive: 0.154 µM [rising, full curve, poor fit]"
same,Potency,[2]; [11],"inconclusive: 67.5 µM [falling, single point]"
same,activation,[2]; [11],inconclusive: -0.607%
same,Potency,[3],active: 23.9 µM
same,Potency,[5],inconclusive: 41 µM and inconclusive: 18.5 µM
same,Potency,[8],active: 12.1 µM
same,Potency,[9],inconclusive: 7.64 µM
CC(C)CC(C)Nc1ccc(Nc2ccccc2)cc1 (stereo not given),Potency,[1],active: 42.9 µM
same,Potency,[2]; [11],inconclusive: 21.3 µM
same,Potency,[3],inconclusive: 60.1 µM [cytotoxic]
same,Potency,[4],active: 54 µM
same,Potency,[5],inconclusive: 53 µM
same,Potency,[7],inconclusive: 60.6 µM [single point]
same,Potency,[10],inconclusive: 60.6 µM [single point]
CC(C)(c1cc(Cl)c(O)c(Cl)c1)c1cc(Cl)c(O)c(Cl)c1,Potency,[1],active: 49 µM and active: 24.5 µM
same,Potency,[2]; [11],active: 15.4 µM and active: 19.3 µM
same,Potency,[3],"inconclusive: 68.6 µM [cytotoxic, single point]"
same,Potency,[4],"inactive and inconclusive: 38.9 µM [cytotoxic, partial curve, poor fit]"
same,Potency,[5],inconclusive: 47.2 µM [activator] and inconclusive: 52.9 µM
same,Potency,[6],"inconclusive: 61.7 µM [cytotoxic, single point] and inconclusive: 54.9 µM [cytotoxic, single point]"
same,Potency,[8],"inconclusive: 38.9 µM [cytotoxic, partial curve, poor fit]"
